“And” between values parts separate entries of the source, which are not always exact repeats. Equal values may be shown once. In all, about 48,000 compounds went through this assay and about 1,200 (2.5%) were called active. About 2% were inconclusive and are not listed.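 Rule for the calls: active = activation of at least 60% and not above a set upper limit (about 1 call in 100 departs from these limits); inconclusive = activation of 40% to 60%, or above that upper limit; inactive = activation under 40%.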 The list shows a part of the results.
Biological target: Probable G-protein coupled receptor 32 (Homo sapiens) (UniProt O75388)
Experiment: qHTS for Agonists of Human Resolvin D1 Receptor DRV1; note: 0% is about no effect
Conditions: CHO-K1 GPR32 beta-arrestin PathHunter luminescence, 90 min; at 76.9 µM; active compounds read high; zero percent set by DMSO-only wells
In short: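 GPR32 activation in stably transfected CHO-K1 cells, detected as beta-arrestin recruitment by enzyme-fragment complementation. Compound exposure: 90 min, 37 °C.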

Chain of UniProt O75388 (O75388 whole entry, looked up): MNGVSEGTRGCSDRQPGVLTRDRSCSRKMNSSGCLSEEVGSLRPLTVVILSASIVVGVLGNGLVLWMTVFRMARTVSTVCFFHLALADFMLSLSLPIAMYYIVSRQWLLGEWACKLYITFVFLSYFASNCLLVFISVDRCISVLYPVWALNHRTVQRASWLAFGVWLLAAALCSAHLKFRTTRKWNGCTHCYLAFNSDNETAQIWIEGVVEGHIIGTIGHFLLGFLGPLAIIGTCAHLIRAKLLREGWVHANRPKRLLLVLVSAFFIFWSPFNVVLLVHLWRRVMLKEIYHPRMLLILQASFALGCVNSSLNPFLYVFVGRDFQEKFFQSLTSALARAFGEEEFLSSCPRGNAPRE

| SMILES | activation |
| --- | --- |
| O=C(Nc1ccc2nc(SCC(=O)N3CCCc4ccccc43)sc2c1)c1ccccc1F | inactive: -8.75% |
| Cc1ccc2oc(-c3cc(NC(=O)Cc4ccccc4)ccc3Cl)nc2c1 | active: 64.3% |
| CN(C)c1ccc(C(CNC(=O)c2ccccc2Cl)N2CCc3ccccc32)cc1 (stereo not drawn) | inactive: -35.9% |
| CC(C)NCC(O)COc1ccc(CCOCC2CC2)cc1 (stereo not drawn) | inactive: 4.29% and inactive: 0.537% |
| CCCCOc1ccc(C(=O)NCCS(=O)(=O)N2CCN(c3ccccc3OC)CC2)cc1 | inactive: 32.5% |
| CCN(C(=O)CSc1nc2ccccc2nc1Cc1cccc(OC)c1)c1cccc(C)c1 | inactive: -36.4% |
| O=C(NC1CC(=O)N(c2ccc(F)cc2)C1)c1ccc(S(=O)(=O)N2CCCC2)cc1 (stereo not drawn) | inactive: -2.21% |
| O=C(COc1ccc(Cl)cc1)Nc1ccc(O)c(-c2nc3ccccc3s2)c1 | inactive: -8.99% |
| Cc1ccc(Cn2c(C(=O)O)c(CNCCc3cccs3)c3ccc(C)cc32)cc1 | inactive: -1.37% |
| COc1ccccc1NC(=O)c1ccc2[nH]c(C)cc(=O)c2c1 | inactive: 3% |
| Cc1cc(Br)ccc1NC(=O)COc1cc(=O)n(C)c2ccccc12 | inactive: -3.84% |
| Cc1ccccc1NC(=O)c1c(C)oc2ccc(O)c(CN3CCCC(C)C3)c12 (stereo not drawn) | inactive: -1.55% |
| COc1cccc(CNC(=O)CSc2nc3ccccc3nc2Cc2ccccc2)c1 | inactive: -18.4% |
| O=c1c2sc3ccccc3c2n(Cc2ccccc2F)c(=O)n1-c1ccccc1Cl | inactive: -42.5% |
| Cc1nnc(N2CCC(C(=O)NCc3ccc(F)cc3)CC2)c2nn(-c3ccc(Cl)cc3)c(C)c12 | inactive: 0.0671% |
| COc1cc2c(cc1OC)C(c1ccc(F)cc1)N(c1ccccc1)C(=O)C2 (stereo not drawn) | inactive: -4.39% |
| Cc1ccc2c(c1)cc(C(=O)NCc1ccc(F)cc1)n2C | inactive: 10.2% |
| CCOCC(=O)Nc1ccc(-c2cn3c(C)csc3n2)cc1 | inactive: 6.59% |
| COc1ccccc1N1CCN(c2ccc(=O)n(CC(=O)O)n2)CC1 | inactive: -7.45% |
| COc1ccc(S(=O)(=O)NCC(c2ccc(N(C)C)cc2)N2CCOCC2)cc1 (stereo not drawn) | inactive: -10.8% |
| COc1ccc(-c2[nH]c3ccccc3c2SCCNC(=O)c2ccc(S(=O)(=O)N(C)C)cc2)cc1 | inactive: -24.3% |
| COC(=O)c1cccc(Nc2nn3c(=O)c4cc5c(cc4nc3s2)OCO5)c1 | inactive: -2.28% |

| SMILES | activation |
| --- | --- |
| COc1ccc(CNC(=O)CSc2ncc(S(=O)(=O)c3ccc(Br)cc3)c(=O)[nH]2)cc1 | inactive: -18.2% |
| COC(=O)Nc1nc2ccc(Sc3ccccc3)cc2[nH]1 | inactive: 11.5% |
| CCCn1c(=O)[nH]c(=O)c2[nH]cnc21 | inactive: -10.9% |
| Cc1ccc2[nH]c3c(=O)n(CC(=O)NC(C)C)ncc3c2c1 | inactive: -7.99% |
| Cc1nn(-c2ccc(N3CCOCC3)nn2)c(C)c1CCC(=O)NCc1ccccc1F | inactive: -24.4% |
| O=C(CSC1=Nc2ccccc2N=C(c2ccc(F)cc2)C1)NCc1ccccc1Cl | inactive: -41.8% |
| CCCCOc1ccc(CNC(=O)Cc2ccc(NC(=O)N3CCSc4ncccc43)cc2)cc1 | inactive: 5% |
| CCNc1oc(-c2ccc(COc3ccc(Cl)cc3)o2)nc1C#N | inactive: 19.7% |
| NC(=O)c1ccccc1NC(=O)Cn1nc(Cc2cccnc2)c2ccccc2c1=O | inactive: -23.2% |
| CCOc1ccc(CNC(=O)c2sc3ncnc(N(C)C4CCCCC4)c3c2C)cc1 | inactive: -15.7% |
| Cc1ccc(Cl)cc1NC(=O)CSc1nc2c(c(=O)[nH]1)CN(Cc1ccccc1)CC2 | inactive: 8.01% |
| COc1ccc(S(=O)(=O)N2CCN(CC(=O)Nc3ccc(Cl)c(C(F)(F)F)c3)CC2)cc1 | inactive: 4.74% |
| Cc1cccc(NC(=O)CSc2nc(=O)n(Cc3ccccn3)c3c2CCC3)c1C | inactive: -4.83% |
| COc1ccc(CNC(=O)c2cc3cccc4c3n2CC(C)S4)c(OC)c1 (stereo not drawn) | inactive: -19.4% |
| O=C(CSc1ncc(CO)n1Cc1ccc(Cl)cc1)NCc1ccc(F)cc1 | inactive: 39.5% |
| COc1ccc(C(=O)Oc2cc(-c3ccc4c(c3)OCO4)cc(=O)c3c(C)oc(C)c23)cc1 | inactive: -6.9% |
| COC(=O)c1cc2oc(C)cc2n1CC(=O)Nc1cc(Cl)ccc1OC | inactive: -20.4% |
| Cc1ccccc1C(=O)Nc1ccc(C(=O)OCc2cc(=O)n3nc(C(C)C)sc3n2)cc1 | inactive: -18.5% |
| COc1ccc(NC(=O)C2Cc3ccccc3N2C(=O)c2ccccc2)cc1OC (stereo not drawn) | inactive: -2.92% |
| Cc1ccc(-c2onc(C)c2C)cc1S(=O)(=O)Nc1ccc(Cl)cn1 | inactive: -1.9% |
| CCOC(=O)c1ccc(NC(=O)CCc2c(C)nc3c(-c4ccc(F)cc4)c(C)nn3c2C)cc1 | inactive: -1.93% |

From PubChem BioAssay AID1346428 (National Center for Advancing Translational Sciences (NCATS), 2018)
